PubChem BioAssay AID463173 (ICCB-Longwood Screening Facility, Harvard Medical School, 2010)
In all, about 52,000 compounds went through this assay and about 4,300 (8.3%) were called active. Rule as the data show it: active = survival mostly below about 52% (no sharp cut-off); inactive = mostly above about 56%. This is one part of the list.

The molecules below were run on DeltatarO mutant (assay: growth inhibition of S. aureus wild type versus tarO mutant, primary screen, teichoic acid synthesis inhibitors, RN4220, OD600 (AID 463173)). Conditions: OD600, 18 h, hits give low values, screened at 18.75 µg/mL (by protocol).

| Structure (SMILES) | survival |
| --- | --- |
| CCOC(=O)c1cc2c(=O)n3ccccc3nc2n(CC2CCCO2)c1=NC(=O)c1cc(C)cc(C)c1 (stereo not given) | active: 44% |
| CC1(C)CC(NC(=O)NCc2ccc3c(c2)OCO3)CC(C)(CNC(=O)NCc2ccc3c(c2)OCO3)C1 (stereo not given) | inactive: 78% |
| COc1ccc(CC(=O)Nc2sc3c(c2C(=O)Nc2ccc(C)cc2)CCCCC3)cc1 | inactive: 131% |
| CCc1cccc(C)c1Nc1c(-c2cccc(O)c2)nc2sccn12 | inactive: 105% |
| Cc1[nH]c2ccccc2c1C1(O)C(=O)N(Cc2ccc(Cl)cc2)c2ccccc21 (stereo not given) | active: 29% |
| Cc1cc(S(=O)(=O)NCCC2=CCCCC2)ccc1-n1cnnn1 | inactive: 70% |
| Cc1ccc(N(CC(=O)Nc2ccc(OC(F)(F)F)cc2)S(=O)(=O)c2c(C)noc2C)cc1 | inactive: 70% |
| Cc1[nH]c2c(C)cccc2c1CCNC(=O)c1cc2ccccc2oc1=O | inactive: 86% |
| Cc1ccc(O)c(NC(=O)c2nc3nc(C)cc(C(F)F)n3n2)c1 | inactive: 118% |
| CCOc1ccc2[nH]c(=O)c(CN(C(C)=O)C3CCCC3)cc2c1 | inactive: 78% |
| COCCn1c(SCC(=O)c2c[nH]c3ccccc23)nc2cc(C(=O)NCC(C)C)ccc2c1=O | inactive: 100% |
| COc1cccc(N2CCN(C(=O)c3nc(-c4ccc(Cl)cc4)n4c3CCCCC4)CC2)c1 | inactive: 79% |
| O=c1oc2ccc3ccccc3c2cc1-c1nnc(Nc2cc(C(F)(F)F)ccc2Cl)s1 | inactive: 95% |
| COc1ccccc1NC(=O)CSc1nc2c(oc3ccccc32)c(=O)n1-c1ccccc1F | inactive: 79% |
| Cc1cc2oc(C(=O)N(Cc3ccc(N(C)C)cc3)CC3CCCO3)c(C)c2cc1Cl (stereo not given) | inactive: 65% |
| COc1ccc(NC(=O)c2oc3ccccc3c2NC(=O)c2cc(C)cc(C)c2)c(OC)c1 | inactive: 100% |
| CCOC(=O)C1CCN(c2nc3ccccc3nc2Cl)CC1 | active: -24% |
| COc1ccc(NC(=O)C2CCN(C(=O)c3sc4nc[nH]c(=O)c4c3C)CC2)cc1Cl | inactive: 77% |
| CN(CC(=O)Nc1ccc(Br)cc1)S(=O)(=O)c1cccc2nsnc12 | inactive: 80% |
| O=C(NC1CCCC1)C(c1ccccc1)N(Cc1ccccc1F)C(=O)c1ccco1 (stereo not given) | inactive: 102% |
| CCC(c1nnnn1C(C)(C)CC)N1CCN(c2ccccc2)CC1 (stereo not given) | inactive: 114% |
| COC(=O)c1ccc2c(=O)n3nc(Nc4cc(OC)ccc4OC)sc3nc2c1 | inactive: 97% |
| Cc1ccccc1NC(=O)CSC1=Nc2ccccc2C2=NC(Cc3ccccc3)C(=O)N12 (stereo not given) | inactive: 84% |
| Cc1ccc(OCc2nc(C#N)c(NCCc3ccccc3)o2)cc1 | active: 35% |
| CCC(Sc1ncc(S(=O)(=O)c2ccc(Cl)cc2)c(=O)[nH]1)C(=O)Nc1ccc(OC)cc1 (stereo not given) | inactive: 89% |
| COc1ccc(Cl)cc1NC(=O)CSc1nnc2[nH]c(=O)cc(-c3ccccc3)n12 | inactive: 85% |
| Cc1ccc2[nH]c(=O)c3cc(C(=O)N(CCCOC(C)C)Cc4ccco4)sc3c2c1 | active: 56% |
| Cc1ccc(N(C(=O)c2ccco2)C(C(=O)NC2CCCC2)c2ccc(N(C)C)cc2)c(C)c1 (stereo not given) | inactive: 93% |

| Structure (SMILES) | survival |
| --- | --- |
| Cc1cc(C)c(NC(=O)C(=O)NCC(c2cccnc2)N2CCN(c3ccccc3F)CC2)c(C)c1 (stereo not given) | inactive: 58% |
| CC(=O)Nc1cccc(NC(=O)CSc2nccn2C2CCCC2)c1 | inactive: 78% |
| O=C(CN1C(=O)c2cccc3cccc1c23)Nc1cccc(F)c1 | inactive: 57% |
| C=Cc1ccc(Cn2c(C)c(CNCc3ccc(SC)cc3)c(C(=O)O)c2C)cc1 | inactive: 69% |
| CN(Cc1ccccc1)c1ccc(-c2nc(-c3ccccc3)no2)cc1[N+](=O)[O-] | inactive: 69% |
| CCOc1ccc(CCNC(=O)Cn2ccc3cc(S(=O)(=O)N4CCCCC4)ccc32)cc1 | inactive: 102% |
| CCOc1ccc2[nH]c(=O)c(CN(CCO)C(=O)Nc3ccc(OC)cc3)cc2c1 | inactive: 92% |
| CCN(CCCNC(=O)c1cc(Nc2ccc(OC)cc2)nc2ccccc12)c1cccc(C)c1 | inactive: 91% |
| Cc1ccc(Cl)cc1NC(=O)Nc1cn(CC(C)C)c(=O)c2ccccc12 | inactive: 59% |
| Cc1ccccc1CN1C(=O)c2ccccc2Sc2ccc(C(=O)NCc3ccccc3)cc21 | active: 37% |
| O=C(Nc1ccccc1F)c1nc(SCc2ccccc2F)ncc1Cl | inactive: 73% |
| COc1cccc(CNC(=O)c2ccc3c(c2)N(Cc2ccc(F)cc2Cl)C(=O)c2ccccc2S3)c1 | active: 25% |
| COc1ccc(-c2nn(-c3ccc(F)cc3)c3c2cnc2ccc(F)cc23)cc1OC | inactive: 76% |
| Cc1ccc(NC(=O)CCCn2c(=O)c3cccn3c3ccccc32)cc1Cl | inactive: 68% |
| CCCc1nn2c(=O)cc(COC(=O)C3CCCCC3)nc2s1 | inactive: 81% |
| COc1ccc(OCC(=O)Nc2ccc(Cl)c(-c3nc4ncccc4o3)c2)cc1 | inactive: 155% |
| COC(=O)c1cc2sc(Cl)cc2n1CC(=O)Nc1cc(OC)cc(OC)c1 | inactive: 84% |
| O=C1CN(C(=O)COc2ccccc2)C(c2ccc(F)cc2)c2cc(Br)ccc2N1 (stereo not given) | active: 33% |
| N#CCCn1nc(-c2ccccc2)c2ccccc2c1=O | inactive: 67% |
| COC(=O)c1ccccc1NC(=O)c1oc2ccc3c(c2c1C)C(=O)CC(C)(C)O3 | inactive: 80% |
| O=C(NCc1nc2ccccc2n1Cc1ccccc1Cl)c1ccccc1 | inactive: 97% |
| O=c1c2c3c(sc2ncn1CCn1cnc2sc4c(c2c1=O)CCCC4)CCCC3 | inactive: 88% |
| CCOC(=O)c1ccccc1NC(=O)c1cnn(-c2ccc(OC)cc2)c1C1CCN(C(=O)OC(C)(C)C)CC1 | inactive: 92% |
| Cc1ccc2c(c1)c(=O)c1ccccc1n2CCCC(=O)Nc1ccc(Cl)cc1C | active: 45% |
| CCOc1ccc(CNC(=O)c2cnc3c(C)cccn3c2=O)cc1 | inactive: 80% |
| Cc1cccc(C)c1NC(=O)Cn1c(=O)n(Cc2ccccc2Cl)c(=O)c2cccnc21 | inactive: 97% |
| Cc1ccc(-c2nc(S(=O)(=O)c3ccc(C)cc3)c(SCC(=O)c3ccccc3)o2)cc1 | inactive: 52% |
